PubChem BioAssay AID485294 (National Center for Advancing Translational Sciences (NCATS), 2010)
The campaign covered roughly 370,000 compounds. About 150 (0.041%) were called active. Inconclusive means that the source gave no clear call. Such entries were picked first, then a sample of the others. Calls come from the whole dose curve; as a rule, active = well fitted inhibition curve with a large enough effect; inconclusive = small, poorly fitted or top-dose-only effect; inactive = flat fitted curve, though single readings scatter. Potencies of inconclusive entries are left out as doubtful fits.

biological target: Beta-lactamase (Escherichia coli (strain K12)) (UniProt P00811); assay: qHTS Inhibitors of AmpC Beta-Lactamase (assay with detergent); conditions: AmpC hydrolysis of nitrocefin, absorbance 480 nm, 0.01% Triton; activity change, negative = inhibition: at 114 µM (top of the series); note: nearly all actives have a fitted effect of over 25% in size;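 for activity change, negative = inhibition: 0% = no-compound wells and -100% = no-enzyme wells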
In short: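 20 mM phosphate pH 7.0 + 0.01% (detergent screen) or 0.0001% Triton X-100; 5.3 nM AmpC reagent; cpd preinc 15 min RT; nitrocefin (800 uM stock) to start; A480 q20 s × 4 min; Activity was normalised to no-enzyme and no-compound control wells.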
Potency is the fitted concentration of half-maximal effect; tags give direction and shape of the fitted curve.

| SMILES | Potency | activity change, negative = inhibition |
| --- | --- | --- |
| CCOC(=O)c1ccc(NC(=O)CSc2nnc(C3CCCCC3)n2C)cc1 | inconclusive [inhibitor, single point] |  |
| Cc1cc(NC(=O)COc2ccc3ccccc3c2)no1 | inconclusive [inhibitor, full curve, poor fit] |  |
| Cc1cccc2[nH]c(SCC(=O)N3CCOCC3)nc12 |  | inactive: 3.21% |
| COC(=O)c1ccccc1NC(=O)[C@@H]1CCC(=O)N1C1OC(=O)c2c1ccc(OC)c2OC (stereo partly specified) | inconclusive [inhibitor, full curve, poor fit] |  |
| CC(C)Sc1ncc(S(=O)(=O)c2ccccc2)c(=O)[nH]1 | inconclusive [inhibitor, full curve] |  |
| Cc1cc(C=O)c(C)n1-c1ccc(N2CCOCC2)cc1 |  | inactive: -9.38% |
| CCC(=O)c1ccc(OC)c(OC)c1 | inconclusive [inhibitor, full curve, poor fit] |  |
| O=C1c2ccccc2C(=O)N1c1ccc(Cl)cc1 |  | inactive: -4.11% |
| CC(C(=O)O)c1cccc(C(=O)c2ccccc2)c1 (stereo unspecified) | inconclusive [inhibitor, full curve] |  |
| COc1ccc2c(c1)cc1c(=O)n(CC(=O)NCCCN3CCOCC3)nc(C)n12 | inconclusive [inhibitor, partial curve, poor fit] |  |
| COc1ccc(/C=C2/CCOC2=O)cc1 |  | inactive: -13.5% |
| N#Cc1c(NC(=O)CSc2nc3ccccc3c(=O)n2Cc2ccco2)sc2c1CCCC2 | inconclusive [inhibitor, full curve] |  |
| O=C(Nc1ccc(Br)cc1)C1CCCN(S(=O)(=O)c2ccc(Br)s2)C1 (stereo unspecified) |  | inactive: -8.38% |
| COCCCNC(=S)N(Cc1ccccc1)Cc1nc2ccccc2c(=O)[nH]1 | inconclusive [inhibitor, full curve] |  |
| Cc1cc(C(=O)COC(=O)c2ccc(Cl)c(S(N)(=O)=O)c2)c(C)n1CC1CCCO1 (stereo unspecified) | inconclusive [inhibitor, full curve, poor fit] |  |
| O=[N+]([O-])c1ccc(-n2cnc3ccccc32)c([N+](=O)[O-])c1 | inconclusive [inhibitor, full curve, poor fit] |  |
| COc1ccc(C(=O)N/C(=C/c2cccs2)c2nc3ccccc3[nH]2)cc1OC | inconclusive [inhibitor, partial curve] |  |
| CC(C)NC(=O)N1CC(c2ccccc2)C(c2ccc(Cl)cc2)=N1 (stereo unspecified) | inconclusive [inhibitor, full curve, poor fit] |  |
| CN1CN(c2cccc([N+](=O)[O-])c2)CN=C1N[N+](=O)[O-] | inconclusive [inhibitor, single point] |  |
| COc1cccc(/C=C/C(=O)Nc2ccc3nc4n(c(=O)c3c2)CCCC4)c1OC |  | inactive: -6.38% |
| CCCCCC(=O)NC(=S)NNC(=O)CC | inconclusive [inhibitor, full curve, poor fit] |  |
| CCOC(=O)CSc1nc(-c2ccccc2)cc(C(F)(F)F)n1 | inconclusive [inhibitor, partial curve] |  |

| SMILES | Potency | activity change, negative = inhibition |
| --- | --- | --- |
| COc1cc(NC(=O)CN2CCN(c3ccccc3F)CC2)c(C)cc1[N+](=O)[O-] | inconclusive [inhibitor, partial curve, poor fit] |  |
| Cc1ccc(C(C(=O)NC2CCCC2)N(Cc2ccc(F)cc2)C(=O)c2csnn2)o1 (stereo unspecified) | inconclusive [inhibitor, partial curve, poor fit] |  |
| CCOC(=O)c1nc2ccccc2c(=O)[nH]1 |  | inactive: 4.09% |
| CCc1cccc(NC(=O)c2nnn(Cc3ccc(SC)cc3)c2N)c1 | inconclusive [inhibitor, single point] |  |
| COc1cc(C)nc(Oc2ccc(=O)n(C)n2)n1 | inconclusive [inhibitor, partial curve, poor fit] |  |
| O=C(Nc1ccccc1C(=O)N1CCOCC1)C1CCC(=O)N1C1CCCC1 (stereo unspecified) | inconclusive [inhibitor, single point] |  |
| CC(C)NS(=O)(=O)c1ccc(NC(=O)C(C)OC(=O)CCCOc2ccccc2)cc1 (stereo unspecified) | inconclusive [inhibitor, single point] |  |
| COc1c(C)cc(C(=O)C2CCCN(S(=O)(=O)N(C)C)C2)cc1C (stereo unspecified) | inconclusive [inhibitor, full curve, poor fit] |  |
| O=C(CSc1nnc(-c2ccccc2)n1Cc1ccco1)NCc1ccc2c(c1)OCO2 | inconclusive [inhibitor, full curve, poor fit] |  |
| O=C(COc1ccc(Br)cc1Cl)NC(=O)NC1CCCC1 | inconclusive [inhibitor, full curve, poor fit] |  |
| CCOc1ccc(-c2cccc(NC(=O)c3cccs3)c2)nn1 | inconclusive [inhibitor, partial curve, poor fit] |  |
| O=C(CC(=O)N/N=C\c1cccc(Cl)c1Cl)NCc1ccccc1 | inconclusive [inhibitor, full curve] |  |
| N#CCCn1cc(C(N)=O)c(-c2cccs2)n1 | inconclusive [inhibitor, full curve, poor fit] |  |
| CCOC(=O)C(C(=O)Nc1ccccc1)C1CCCCC1 (stereo unspecified) | inconclusive [inhibitor, single point] |  |
| Cc1cccc(N2CCN(C(=O)C(Cc3ccccc3)n3cccc3)CC2)c1C (stereo unspecified) | inconclusive [inhibitor, partial curve] |  |
| O=C(Nc1nnc(-c2ccc(Cl)cc2)o1)C1=COCCO1 | inconclusive [inhibitor, partial curve] |  |
| O=C(Nc1ccccn1)c1ccc(C(=O)c2ccccc2)cc1 | inconclusive [inhibitor, full curve, poor fit] |  |
| CCn1cnc2sc(C(=O)Oc3cccc(C)c3)c(C)c2c1=O | inconclusive [inhibitor, single point] |  |
| COC(=O)[C@@]1(Cc2ccc(F)cc2)[C@H]2c3cc(C(=O)N(C)C)[nH]c3C[C@H]2CN1C(=O)c1ccccc1 | inconclusive [inhibitor, full curve] |  |
| CCN=c1scc(-c2ccc(F)cc2)n1/N=C/c1ccccn1 |  | inactive: -0.687% |
| CSCCC(C(=O)N(C)CC(=O)Nc1cccc(F)c1)N1C(=O)c2ccccc2C1=O (stereo unspecified) |  | inactive: -7.92% |
| Cc1ccc(C2C3=C(CC(C)(C)CC3=O)Nc3n[nH]c(C)c32)cc1 (stereo unspecified) | inconclusive [inhibitor, full curve, poor fit] |  |

| SMILES | Potency | activity change, negative = inhibition |
| --- | --- | --- |
| Cc1sc2nc(CSCC(=O)NC3CCCCC3)[nH]c(=O)c2c1C | inconclusive [inhibitor, full curve, poor fit] |  |
| CCC(C(=O)Nc1ccccc1C(=O)OC)n1c(C)c2cnn(-c3ccccc3)c(=O)c2c1C (stereo unspecified) |  | inactive: 23.8% |
| COc1cc(OC)cc(C(=O)N2CCN(C3CCCCC3)CC2)c1 | inconclusive [inhibitor, full curve] |  |
| Cc1ccc(C(=O)CSc2nc(C)cc(=O)[nH]2)cc1 |  | inactive: -0.364% |
| COc1ccc(/C=C2\SC(=O)N(CCC(=O)N3CCN(C)CC3)C2=O)cc1 | inconclusive [inhibitor, full curve] |  |
| CCCc1cc(=O)oc2cc(C)cc(OCC(=O)NCC(O)c3ccccc3)c12 (stereo unspecified) | inconclusive [inhibitor, partial curve, poor fit] |  |
| CCn1cc(C(=O)NCCCOC(C)C)c(=O)c2cc(S(=O)(=O)N3CCc4ccccc4C3)ccc21 |  | inactive: 5.88% |
| O=C(OCc1cccc2ccccc12)C1CC(=O)N(c2ccccc2)C1 (stereo unspecified) | inconclusive [inhibitor, partial curve] |  |
| COc1ccc(-n2nnnc2SCC(=O)N2CCOCC2)cc1 | inconclusive [inhibitor, partial curve] |  |
| CCN(CCNC(=O)C1CCCN(S(=O)(=O)c2cnc[nH]2)C1)c1ccccc1 (stereo unspecified) | inconclusive [inhibitor, full curve, poor fit] |  |
| COc1ccc(CCNS(=O)(=O)c2ccc([N+](=O)[O-])cc2)cc1OC | inconclusive [inhibitor, partial curve, poor fit] |  |
| Cc1nc2ccc(S(=O)(=O)NC(C(=O)N3CCC(C)CC3)C(C)C)cc2s1 (stereo unspecified) | inconclusive [inhibitor, full curve, poor fit] |  |
| Cc1ccccc1CNC(=O)c1ccc(Cl)c([N+](=O)[O-])c1 |  | inactive: 9.11% |
| CCOC(=O)c1[nH]c(C)c(CCC(=O)Nc2c(C)cc(C)cc2C)c1C |  | inactive: -8.07% |
| CCCn1c(=O)c(C(=O)Nc2c(C)n(C)n(-c3ccccc3)c2=O)c(O)c2ccccc21 | inconclusive [inhibitor, full curve, poor fit] |  |
| O=C(Nc1ccccc1F)c1ccco1 |  | inactive: -4.45% |
| Cc1ccc(/C=C/c2onc(C)c2S(=O)(=O)N2CCC(C(=O)NC(C)(C)C)CC2)cc1 | inconclusive [inhibitor, full curve, poor fit] |  |
| CCOc1ccc(OCCCCNCCN)cc1 | inconclusive [inhibitor, single point] |  |
| Cc1cccc(C(=O)Nc2cccc(-c3cnc4ccccc4n3)c2)c1 | inconclusive [inhibitor, single point] |  |
| COC(=O)Nc1ccc(S(=O)(=O)N2CCCc3cccc(O)c32)cc1 |  | inactive: -6.91% |
| CC1(C)C=C2C(=NN(c3ccccc3)C(N)=C2C#N)CO1 | inconclusive [inhibitor, full curve, poor fit] |  |
| COc1ccc(C(=O)NCCC2=CCCCC2)cc1[N+](=O)[O-] |  | inactive: 2.04% |
